Test results: PubChem BioAssay AID504832 (National Center for Advancing Translational Sciences (NCATS), 2011)
In all, about 310,000 compounds went through this assay and about 18,000 (5.8%) were called active. Inconclusive means that the source gave no clear call. Such entries were picked first, then a sample of the others. Calls follow the shape of the dose curve; as a rule, active = well fitted inhibition curve with a large enough effect; inconclusive = small, poorly fitted or top-dose-only effect, or another doubt; inactive = no such curve, though single readings can be large or run the other way. Potencies of inconclusive entries are left out as doubtful fits.

Assay: Primary qHTS for delayed death inhibitors of the malarial parasite plastid, 48 hour incubation
Details: P. falciparum luciferase growth in erythrocytes; series mostly up to 28.7 µM
Method in brief: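 Compounds are pin-transferred into medium, infected erythrocytes (2% hematocrit, 0.1% parasitemia final) are added, and plates sit one parasite generation at 37 C in 5% CO2. Detection reagent is then added and luminescence measured.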
Potency is read from the fitted curve at half-maximal effect; tags tell the direction and shape of the fitted curve.

Row | Structure (SMILES) | Potency
1 | Cc1cc(C)c(-c2c(O)c3c(n(C)c2=O)CC(C)(C)CC3=O)c(C)c1 | inconclusive [inhibitor, partial curve]
2 | CCOC(=O)c1cnc(-c2ccccc2)nc1N1CC(C)OC(C)C1 (stereo unspecified) | inconclusive [inhibitor, single point]
3 | CC(C)Oc1ccc(S(=O)(=O)N2CCOCC2)cc1NC(=O)c1cc([N+](=O)[O-])ccc1N1CCOCC1 | active: 13.1 µM
4 | Nc1ccccc1-[n+]1c(-c2ccccc2)cc(-c2ccccc2)cc1-c1ccccc1 | active: 4.65 µM
5 | O=C(NC1CCN(Cc2ccccc2)CC1)c1ccc(Cn2c(=S)[nH]c3ccc(N4CCOCC4)cc3c2=O)cc1 | inconclusive [inhibitor, partial curve, poor fit]
6 | Fc1ccccc1CNC(=S)NCc1ccc(Cl)cc1 | inconclusive [inhibitor, partial curve, poor fit]
7 | O=C(CN1C(=O)NC2(CCc3ccccc32)C1=O)Nc1ccc(Br)cc1F (stereo unspecified) | inconclusive [inhibitor, single point]
8 | Oc1ccc(Br)cc1-c1cc(-c2ccco2)[nH]n1 | active: 11.7 µM
9 | O=C(CCS(=O)(=O)c1ccccc1)Nc1ncc([N+](=O)[O-])s1 | inconclusive [inhibitor, full curve]
10 | COc1ccc(-c2cc(C(F)F)n3ncc(C(=O)N4CCSCC4)c3n2)cc1 | inconclusive [inhibitor, single point]
11 | Cc1ccc(N(C(C)C(=O)Nc2cccc(N(C)S(C)(=O)=O)c2)S(C)(=O)=O)cc1 (stereo unspecified) | inconclusive [inhibitor, single point]
12 | CC(C)(C)OC(=O)NCCCCCc1cn([C@@H](CO)C(=O)NCCCCCCCCCCC(=O)N2CCN(C(=O)OC(C)(C)C)CC2)nn1 | active: 1.17 µM
13 | COC(=O)c1c(C(C)=O)c(C)n(C)c1C | inactive
14 | Cc1ccc(C)c2[nH]c(=O)c(C(c3nnnn3CCc3ccccc3)N3CCOCC3)cc12 (stereo unspecified) | inconclusive [inhibitor, single point]
15 | CC(=O)Nc1ccc(NC(=O)COC(=O)c2c3c(nc4ccccc24)CCN(Cc2ccccc2)C3)cc1 | active: 10.4 µM
16 | O=C(C[n+]1ccc2ccccc2c1)c1cccc2ccccc12 | inconclusive [inhibitor, partial curve]
17 | N#Cc1ccc(C23CC4(C2)[C@H](CN(Cc2ccc(C(F)(F)F)cc2)[C@@H]4c2ccccc2)C3c2ccccc2)cc1 (stereo partly specified) | inconclusive [inhibitor, single point]
18 | COc1ccc(Cc2nnc(NC(=O)C(C)C)s2)cc1 | inactive
19 | COCCCNC(=O)CSc1nc2cc3c(cc2c(=O)n1CCCC(=O)NCc1ccc(OC)cc1)OCO3 | inactive
20 | O=C(CN1CCN(C(=O)c2ccco2)CC1)Nc1ccccc1-c1ccccc1 | inconclusive [inhibitor, single point]
21 | Cc1ccn2c(NC(=O)c3ccco3)c(-c3ccccc3)nc2c1 | inactive
22 | Cc1ccc2c(c1)c1c3n2CCN(C(=O)CCl)C3CCC1 (stereo unspecified) | inconclusive [inhibitor, partial curve, poor fit]

Row | Structure (SMILES) | Potency
23 | Cc1ccc(-c2nn(-c3cccc(F)c3)cc2CNCCc2ccncc2)o1 | inconclusive [inhibitor, single point]
24 | COc1cccc(C(=O)Nn2cnnc2)c1OC | inactive
25 | COc1cccc(NC(=O)[C@@H]2CCCN2C(=O)C2CCN(S(=O)(=O)c3ccc(C)cc3)CC2)c1 | inconclusive [inhibitor, single point]
26 | Cc1ccc(C(=O)c2cc([N+](=O)[O-])ccc2N2CCCCC2)cc1 | inconclusive [inhibitor, single point]
27 | CC(OC(=O)c1ccc(S(=O)(=O)N(C)C)cc1)C(=O)Nc1ccc(Cl)cn1 (stereo unspecified) | inconclusive [inhibitor, single point]
28 | CCN(CC)c1nc(C(F)(F)F)nc2c1nnn2Cc1ccccc1 | inconclusive [inhibitor, single point]
29 | O=C(CN(CC1CCCO1)C(=O)CNS(=O)(=O)c1ccc(Cl)cc1)NCc1ccco1 (stereo unspecified) | inactive
30 | CSC1=C(C#N)C(c2ccc(C)s2)CC(=O)N1 (stereo unspecified) | inactive
31 | O=C(O)c1csc(-c2cccc(Cl)c2)n1 | inactive
32 | O=C(CSc1nnc(CNC(=O)c2ccccc2)o1)NCCc1ccccc1 | inactive
33 | CC(=O)c1ccc(NC(=O)c2ccc(-n3cncn3)c([N+](=O)[O-])c2)cc1 | inconclusive [inhibitor, partial curve]
34 | O=C(c1ccc(F)cc1)N1CCN(c2ccc([N+](=O)[O-])cc2-n2cccc2)CC1 | inconclusive [inhibitor, single point]
35 | CCNC(=O)NC(=O)COC(=O)C1CSC2(C)CCC(=O)N12 (stereo unspecified) | inconclusive [inhibitor, full curve, poor fit]
36 | NNC(=O)c1ccc(CSc2cccc3cccnc23)cc1 | inactive
37 | O=C(COC(=O)CCC(=O)c1cccs1)Nc1ccccc1[N+](=O)[O-] | inactive
38 | C(#Cc1ccccc1)CN1CCCCC1 | inconclusive [inhibitor, single point]
39 | CC(C)C(c1nnnn1C(C)(C)C)N1CCN(c2cccc(Cl)c2)CC1 (stereo unspecified) | inconclusive [inhibitor, single point]
40 | CC(C)[C@H](NS(=O)(=O)c1cccc(Cl)c1)C(=O)OCC(=O)N1CCN(c2ccccc2)CC1 | inconclusive [inhibitor, partial curve, poor fit]
41 | CCOc1ccc(Nc2nc3cc(S(=O)(=O)N(CC)CC)ccc3o2)cc1 | active: 10.4 µM
42 | CN(NC1OC(=O)c2ccccc21)c1ncc(C(F)(F)F)cc1Cl (stereo unspecified) | inconclusive [inhibitor, single point]
43 | COc1cccc(C2C3=C(N=C4SCC(=O)N42)c2ccccc2CC3)c1OC (stereo unspecified) | active: 11.7 µM
44 | CCO[C@H]1OC(C(=O)N2CCN(Cc3ccc4c(c3)OCO4)CC2)=C[C@@H](c2csc3ccccc23)[C@@H]1CCCO | active: 11.7 µM

Row | Structure (SMILES) | Potency
45 | CCN(CC(=O)Nc1ccccc1OC)C(=O)c1cc(S(=O)(=O)N2CCCCCC2)ccc1OC | inconclusive [inhibitor, single point]
46 | CCCCN(C)CCNC(=S)Nc1ccc2nc(N3CCN(CC)CC3)cc(C)c2c1 | active: 2.33 µM
47 | C[C@@H](C(=O)NCc1ccccn1)[C@H]1C[C@]1(C)[C@H](NC(=O)OCc1ccccc1)c1ccccc1 | inconclusive [inhibitor, partial curve, poor fit]
48 | COc1cc(C(=S)N2CCOCC2)cc(OC)c1OC(=O)c1ccc(C)cc1 | inconclusive [inhibitor, partial curve, poor fit]
49 | N#C/C(=C\c1cccc([N+](=O)[O-])c1)C(=O)NCc1ccc(Cl)cc1 | inconclusive [inhibitor, partial curve, poor fit]
50 | CCOc1cc(C2C3=C(CC(C)(C)CC3=O)N(CCCOC)C3=C2C(=O)CC(C)(C)C3)ccc1OC | inconclusive [inhibitor, single point]
51 | CCOC(=O)c1c(NC(=O)C2COc3ccccc3O2)sc2c1CC(C)(C)NC2(C)C (stereo unspecified) | inconclusive [inhibitor, single point]
52 | O=c1ccn(Cc2ccccc2)c2ccccc12 | inactive
53 | CC(C)C1OC2c3cccc4cccc(c34)C2N1c1ccccc1 (stereo unspecified) | inconclusive [inhibitor, single point]
54 | COCC1CCN(Cc2c(C(=O)N3CCN(C4CCCCC4)CC3)nc3ccccn23)C1 (stereo unspecified) | inconclusive [inhibitor, partial curve, poor fit]
55 | CCCCCCCCC(=O)N/N=C/c1ccccn1 | inconclusive [inhibitor, partial curve, poor fit]
56 | CCN(CC(=O)NCc1ccc(Cl)cc1)C(=O)c1cc(S(=O)(=O)NCc2ccccc2)ccc1C | inconclusive [inhibitor, full curve]
57 | COc1ccccc1NS(=O)(=O)c1cc(C(=O)N2CCCC2)ccc1F | active: 3.29 µM
58 | N#Cc1ccc(C2=CC(=O)C[C@H](c3ccc4c(c3)OCO4)C2)cc1 | inconclusive [inhibitor, partial curve, poor fit]
59 | O=C(NCc1ccc(F)cc1)c1c2c(nc3ccccc13)CCN(Cc1ccccc1)C2 | inconclusive [inhibitor, single point]
60 | O=C(C1=C[C@@H](c2coc3ccccc3c2=O)C[C@@H](OCc2ccc(CO)cc2)O1)N1CCN(Cc2ccccc2)CC1 | inconclusive [inhibitor, full curve, poor fit]
61 | O=C(C1CCC(=O)N(C2CCCC2)C1)N1CCN(Cc2cccc(F)c2)CC1 (stereo unspecified) | inactive
62 | CC(C)(C)C1CCC(=NNC(=O)c2ccco2)CC1 (stereo unspecified) | inactive
63 | COc1ccc(C2=NN(CN3C(=O)C(=O)c4ccccc43)C(c3cccc([N+](=O)[O-])c3)C2)cc1 (stereo unspecified) | inconclusive [inhibitor, single point]
64 | COCCN(Cc1cccs1)S(=O)(=O)c1ccc(-c2ccc(=O)[nH]n2)s1 | inconclusive [inhibitor, single point]
65 | CC1Sc2ccc(S(=O)(=O)CCC(=O)Nc3ccccc3Cl)cc2NC1=O (stereo unspecified) | inactive
66 | Cc1ccc(C)c(Cn2nnc3c(=O)[nH]c(C4CCN(C(=O)c5ccco5)CC4)nc32)c1 | inconclusive [inhibitor, full curve]
